Laboratory results: a collection of fitness landscapes (doi:10.1016/j.celrep.2020.107928)
The full ranking holds about 81,000 sequences; the median of “one-hybrid fitness for binding NBS DNA” is about -0.1, and the highest 2% start at about 0.36. Some of the results follow.

B1: Caulobacter ParB omega fusion; a variant is named by its letters at X, in order, B8GW30 (parent)
chain: MESVVVGEPGMSEGRRGLGRGLSALLGEVDAAPAQAPGEQLGGSREAPIEILQRNPDQPRRTFREEDLEDLSNSIREKGVLQPILVRPSPDTAGEYQIVAGERAWRAAQRAGLKTVPIMVRELDDLAVLEIGIIENVQRADLNVLEEALSYKVLMEKFERTQENIAQTIGKSXSHVANXMRLLXLPDEVQSYLVSGELTAXHARAIAAAADPVALAKQIIEGGLSVRETEALARKAPNLSAGKSKGGRPPRVKDTDTQALESDLSSVLGLDVSIDHRGSTGTLTITYATLEQLDDLCNRLTRGI

Variants of: B1
Experiment: one-hybrid fitness for binding NBS DNA (the Noc-binding site; scaled: cognate 1, non-cognate 0); higher = stronger binding
Settings: with NBS DNA site
Summary of the method: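 Selection: bacterial one-hybrid in E. coli USO, HIS3 reporter with the site 19 bp from the promoter, 48 hours at 37°C on M9-minus-histidine plus 0.1 mM IPTG and 5 mM 3-AT. Libraries were Caulobacter ParB with four randomised specificity codons, sequenced on Illumina before and after selection. Fitness is the rescaled log change in variant-to-wild-type read ratio, anchored to the cognate and non-cognate sites.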

one-hybrid fitness for binding NBS DNA, 0.355:
QYIT

one-hybrid fitness for binding NBS DNA, 0.34:
RVFS

one-hybrid fitness for binding NBS DNA, 0.362:
QHRK

one-hybrid fitness for binding NBS DNA, ≤ 0.2:
MKLS
PLMV
AGRC
LWYF
RAKD
QFHC
MSND
VQGS
CVIR
VSFC
KWRE
WCIG
RYPL
VAMV
LVQT
SASL
NNWC
FACK
LPNW
HVPK
IYKT
WYSG
CSHT
MDVS
DLSI
YWGT
ILER
TPYC
SIGA
VVHT
HWVS
LHHS
FLCG
ATME
TMKC
QRDM
LTWY
SSQP
TSSI
AEGC
LWRY
CYKG
NPQT
TRWS
SYEG
SIRS
CRTR
WTRY
PRSM
YECT
RFGN
NPPL
SRIE
PYGY
HRAH
NYTA
SLMG
TICG
DVAC
YSKF
HCRT
DRNF
DWQG
YNNC
DTII
HNFS
SKQA
IGHS
PERS
WKAK
WTGR
IIAV
SAEW
PMLR
AFFM
KKHM
YVIS
ESQL
QMNL
HPYN
AMLY
KITF
SVLA
VKVM
EYEL
IPTR
SHSL
KYKH
YEPG
FSTC
SAHQ
EAVI
HTHS
RNCH
QLFL
FFTS
ESCR
APVG
TVPR
PWMS
RMWI
WCEG
SGSA
KVNR
WYPF
FCSW
AMLD
CSFF
LLLG
GIYC
VAMR
EEHV
QTMG
WMVC
LTYG
FIMG
PWWG
QWYA
RAFK
LWWT
PAMS
PTPM
LQGT
ATMK
IYDT
RMMA
RPGG
RWAH
RYCG
VRDA
TLTW
CLWC
MVTS
SQFT
HVTY
HQER
LNYT
VGYS
YYFR
LAKP
ASER
GMDC
LRNW
LWFR
AHTP
GGKV
DHNK
LGAA
WPYC
IYIG
EPMS
TQRY
GLST
GKNR
AGLA
ICGC
SAKR
KKRL
QSDF
LLED
EEWR
KNGP
LTNP
EGGM
ELER
VGVR
GTKT
AICP
YCVM
AGHW
PAYQ
EYMS
EMLS
MIFI
FAFG
GSYV
KCAT
VHLS
SPFG
RVDK
SGYT
NHYE
KERP
RCYF
CNPM
GHFR
AMAG
IIFG
SQMT
TQNS
RCMI
YARK
PLGQ
MTFS
LGEW
PCWR
PTEY
MRQS
WRYC
CQPS
HRAK
RRTP
PHDP
TKSA
SPCH
ALCC
QHDP
NLNR
PSFI
PYCN
HGYM
DSPT
QSNY
QCGI
LHYK
HTPV
RWHA
RKVA
PMGR
QSII
WEGG
DQRR
CGLR
KMNR
GVEM
WMTY
WDEV
SHVM
ANHG
YTCF
ALHS
TQNC
IYGV
IVWG
FPGC
WGWR
GFKS
RTVY
MPCT
DFSK
DCWR
QDDL
LVHF
CRSP
MLLI
SPLA
VASF
SNML
HMSG
KSAY
ILHD
FPFC
HGDK
IKWG
HEET
IQVL
GRAA
RIQL
YENG
HNRI
KRQF
RIVC
DWYR
ALNH
KKES
YYEG
AMNR
PGIE
WYTR
SLKR
TAQT
PVGV
FDLQ
KSDC
RAKE
ETIL
SLSN
CITA
YTMT
IPRR
NSMV
GVRA
NAMV
LWCV
QFHP
WTLG
MLYC
MGSL
LNYS

one-hybrid fitness for binding NBS DNA, 0.304:
SSHV

one-hybrid fitness for binding NBS DNA, 0.347:
QSYT

one-hybrid fitness for binding NBS DNA, 0.335:
RKNH

one-hybrid fitness for binding NBS DNA, 0.228:
QSVS
GVCT

one-hybrid fitness for binding NBS DNA, 0.233:
KHRS
VKRR

one-hybrid fitness for binding NBS DNA, 0.441:
RQQT

one-hybrid fitness for binding NBS DNA, 0.311:
RQLT

one-hybrid fitness for binding NBS DNA, 0.42:
QKKN

one-hybrid fitness for binding NBS DNA, 0.224:
KRWA

one-hybrid fitness for binding NBS DNA, 0.69:
RRQS

one-hybrid fitness for binding NBS DNA, 0.219:
QIMT

one-hybrid fitness for binding NBS DNA, 0.208:
QCNN
